Assay results from PubChem BioAssay AID463173 (ICCB-Longwood Screening Facility, Harvard Medical School, 2010).
In all, about 52,000 compounds went through this assay and about 4,300 (8.3%) were called active. Cut-off read from the data, not from the text of the source: active = survival mostly below about 52% (no sharp cut-off); inactive = mostly above about 56%. Some of the results follow.

These compounds were tested on DeltatarO mutant (assay: growth inhibition of S. aureus wild type versus tarO mutant, primary screen, teichoic acid synthesis inhibitors, RN4220, OD600 (AID 463173)). Conditions: OD600, 18 h, stronger effect = lower value, screened at 18.75 µg/mL (by protocol).
For Cc1cc(C)cc(-n2c(SCC(=O)Nc3ccccc3)nc3c(oc4ccccc43)c2=O)c1, the survival was inactive: 101%.
In the case of COc1cccc2cc(-c3nc(-c4ccccc4F)no3)c(=O)oc12, the survival was inactive: 93%.
CCOc1ccccc1CNC(=O)c1cc2c(=O)n(Cc3cccnc3)ccc2nc1C was tested, and the survival was inactive: 69%.
In the case of Cc1c(C=Nc2ccc(Cl)cc2)c(O)n(C)c(=O)c1C#N, the survival was inactive: 74%.
In the case of N#CC(C#N)=C(N)/C(C#N)=C/c1cccs1, the survival was inactive: 81%.
In the case of CC(=O)c1cccc(NC(=O)c2sc(-n3nc(C)c(Cc4ccccc4)c3C)nc2C)c1, the survival was inactive: 72%.
CCCS(=O)(=O)N1CC(=O)N(c2cccc(Cl)c2)C(C)(C(=O)NC2CCCCC2)C1 (centres undefined) was tested, and the survival was inactive: 77%.
In the case of CCCCN(C)CC(O)Cn1cc(/C=C/C(=O)c2ccc(Br)cc2)c2ccccc21 (centres undefined), the survival was active: 0%.
With Cc1cc(=O)[nH]c2nnc(SCc3ccc(Cl)cc3Cl)n12 the survival was inactive: 123%.
O=C(N/N=C/c1ccc[nH]1)c1ccccc1O was tested, and the survival was inactive: 75%.
Cc1ccc2c(CNC3CCCCC3)c(C(=O)O)n(Cc3ccc(F)cc3)c2c1 was tested, and the survival was inactive: 82%.
O=C(Cn1c(SCc2ccc(F)cc2)nc2cccnc21)Nc1ccccc1F was tested, and the survival was inactive: 101%.
COCCNC(=O)c1ccc2c(c1)N(Cc1cc(C)ccc1C)C(=O)c1ccccc1S2=O (centres undefined) was tested, and the survival was inactive: 77%.
In the case of Cc1ccc2nc(COc3cccc(NC(=O)Nc4ccc(C)c(Cl)c4)c3)cc(=O)n2c1, the survival was active: 25%.
CN(C)C(=O)CNCC1CCCO1 (centres undefined) was tested, and the survival was inactive: 93%.
Cn1ncc(N)c1C(=O)N1CCOCC1 was tested, and the survival was inactive: 101%.
With CCOCCc1nnc(NC(=O)C(=O)c2cc(C)n(-c3ccc(C)cc3C)c2C)s1 the survival was inactive: 64%.
Cc1ccc(S(=O)(=O)N2C(=O)CCC2C(=O)N2CCCC2)cc1 (centres undefined) was tested, and the survival was inactive: 97%.
With CCn1c(C)c(C)c2cc(C(=O)NCC(C)c3ccccc3)ccc21 (centres undefined) the survival was inactive: 80%.
COc1ccc2c(c1)c1c(c(=O)n(Cc3ccccc3)c(=O)n1CC(=O)Nc1ccccc1OC)n2C was tested, and the survival was inactive: 79%.
COc1ccc(N(CC(=O)Nc2cccc(Cl)c2)S(=O)(=O)c2c(C)[nH]c(=O)[nH]c2=O)cc1 was tested, and the survival was inactive: 76%.
For CCOc1ccc(Nc2nc(-c3cccc(Cl)c3)c3c(n2)-c2ccccc2OC3)cc1, the survival was inactive: 63%.
In the case of Cc1ccccc1-c1noc(CSc2nc3ccccc3[nH]2)n1, the survival was inactive: 57%.
For CCOC(=O)C1CCCN(C(=O)c2ccc3c(c2)sc2nc(-c4cccc(OC)c4)cn23)C1 (centres undefined), the survival was inactive: 77%.
For CCOCCc1nn2c(=O)cc(COC(=O)c3ccccc3OC)nc2s1, the survival was inactive: 94%.
For COCCCn1c(SCc2cccc(Cl)c2)nc2c(sc3ccccc32)c1=O, the survival was inactive: 118%.
In the case of COc1ccc(CCCc2nnc(SCC(=O)Nc3cccc(F)c3C)o2)cc1, the survival was active: 39%.
For CCc1ccccc1Nc1nn2c(=O)c3ccc(C(=O)NCCC4=CCCCC4)cc3nc2s1, the survival was inactive: 124%.
With Cc1cc(=O)n2nc(N(C)CC(=O)NCc3ccccc3C)sc2n1 the survival was inactive: 109%.
With CCCC(=O)Nc1cccc(OCc2cc(=O)n3cccc(C)c3n2)c1 the survival was inactive: 82%.
With O=C(NCCc1ccccc1)c1cc(Nc2ccccc2)nc2ccccc12 the survival was inactive: 76%.
With CCOc1ccc(-n2c(=O)c3c4c(sc3n(CC(=O)NC(C)CC)c2=O)CCCCC4)cc1 (centres undefined) the survival was inactive: 98%.
With COC(=O)c1ccc(N2C(=O)Cc3cc(OC)c(OC)cc3C2c2ccc(F)cc2)cc1 (centres undefined) the survival was inactive: 70%.
In the case of CCN1C(C(=O)c2ccccc2)=C(OC(=O)COc2ccc(C)cc2)c2ccccc2S1(=O)=O, the survival was inactive: 79%.
Cc1ccc(CNC(=O)CSc2nc3c(sc4ccccc43)c(=O)n2CCCC(=O)NCCO)cc1 was tested, and the survival was inactive: 67%.
For CCc1ccccc1N=C1SCC(=O)N1C, the survival was inactive: 88%.
With O=C(Nc1ccc(F)cc1)Nc1csc2c1CCCC2 the survival was active: 4%.
With COc1ccc(N2CCN(CCCNC(=O)C3COc4ccccc4C3)CC2)cc1 (centres undefined) the survival was inactive: 131%.
For O=C(c1ccc2c(Cl)c3c(nc2c1)CCCC3)N1CCN(c2ccc(Cl)cc2)CC1, the survival was inactive: 92%.
With O=C(Nc1nc2c(F)cc(F)cc2s1)c1ccc(S(=O)(=O)N2CCc3ccccc32)cc1 the survival was inactive: 115%.
For O=C1Cc2cc(S(=O)(=O)N3CCN(c4cccc(Cl)c4)CC3)ccc2N1, the survival was inactive: 73%.
For CC(=O)N1CCCC1c1nc2ccccc2n1Cc1ccccc1Cl (centres undefined), the survival was inactive: 88%.
For O=C(NCc1cccnc1)c1cccc(C(=O)NCc2cccnc2)c1, the survival was inactive: 93%.
CCOc1ccc(CCn2c3c(c(=O)[nH]c2=O)C(NC(=O)c2cccc(F)c2)(C(F)(F)F)C(=O)N3)cc1OCC (centres undefined) was tested, and the survival was inactive: 76%.
Cc1c(CCNC(=O)c2c(F)cccc2F)sc2nc(-c3ccc(F)cc3)nn12 was tested, and the survival was inactive: 117%.
With O=C(Cc1ccc(-c2ccccc2)cc1)NCCS(=O)(=O)N1CCN(c2ccc(F)cc2)CC1 the survival was inactive: 67%.
For Cn1ncc2c(N3CCN(c4ccc(F)cc4)CC3)ncnc21, the survival was inactive: 77%.
In the case of COc1cc(-c2nc3sccn3c2Nc2c(C)cccc2C)ccc1O, the survival was inactive: 125%.
In the case of Cc1nc2c3cc(F)ccc3n(C)c2s1, the survival was inactive: 79%.
For Cc1ccc(NC(=O)c2ccco2)cc1NC(=O)CSc1ncnc2sc3c(c12)CCC3, the survival was inactive: 54%.
With COc1ccccc1CNC(=O)Cc1csc2nc(-c3ccc(F)cc3)cn12 the survival was inactive: 79%.
In the case of CCc1cc2c(cc3c(=O)n(CC(=O)NC(C)c4ccccc4)ncn32)s1 (centres undefined), the survival was inactive: 78%.
For O=S(=O)(c1ccc(Cl)cc1)c1nc(-c2cccs2)oc1N1CCCCC1, the survival was active: 45%.
Cc1cc(C)nc(-n2nc(C)c3c2N(Cc2ccccc2F)C(=O)CC3c2ccc(Cl)cc2)n1 (centres undefined) was tested, and the survival was inactive: 100%.
With CCOC(=O)c1sc2ccccc2c1S(=O)(=O)NCc1ccccc1OC the survival was inactive: 95%.
With CCc1ccccc1NC(=O)C1CCN(S(=O)(=O)c2cn(C)cn2)CC1 the survival was inactive: 93%.
In the case of Cc1cc(Nc2ccc(Br)cc2)nc(C)n1, the survival was inactive: 51%.
Cc1cccc(C)c1-n1ncc(C(=O)NCCCN2CCC(C)CC2)c1C1CCN(C(=O)OC(C)(C)C)CC1 was tested, and the survival was inactive: 91%.
CCC1CN(C(=O)N2CCC(C(=O)NCCc3ccc(OC)cc3OC)CC2)c2cc(C)ccc2O1 (centres undefined) was tested, and the survival was inactive: 93%.
